Results reported in PubChem BioAssay AID995 (National Center for Advancing Translational Sciences (NCATS), 2007).
The campaign covered roughly 72,000 compounds. About 710 (0.99%) were called active. The inconclusive results got no clear call from the source; some entries with a clear call stand among them for comparison. Calls come from the whole dose curve; as a rule, active = well fitted inhibition curve with a large enough effect; inconclusive = small, poorly fitted or top-dose-only effect; inactive = no such curve, though single readings can be large or run the other way. Potencies of inconclusive entries are left out as doubtful fits.

Assay: qHTS Assay for Inhibitors of the ERK Signaling Pathway using a Homogeneous Screening Assay; note: nearly all actives have a fitted effect of over 55% in size
Details: HEK293-V1b, vasopressin-stimulated pERK AlphaScreen; activity, negative = inhibition: at 57.5 µM (top of the series) unless noted
Outline: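 qHTS, compounds titrated on V1b-expressing HEK293 cells. Preincubation 30 min at 37C, vasopressin 25 nM for 5 min, lysis 10 min, bead incubation 5 hr at room temperature.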
% is set by controls: 0 for no effect and ±100 for the full control effect; potency is the fitted concentration of half-maximal effect; tags give direction and shape of the fitted curve.

Structure (SMILES)	Potency	activity, negative = inhibition
Clc1ccc(OCc2nn3c(C4CCCCC4)nnc3s2)cc1	inconclusive [inhibitor, single point]	
CCN(CC)CCCNc1oc(-c2ccc(OC)c(OC)c2)nc1C#N	inactive	
CCOC(=O)CC(=O)CSc1nc2sc(C)cc2c(=O)n1Cc1ccco1	inconclusive [inhibitor, partial curve]	
Cc1cc(C)c(S(=O)(=O)Nc2cccc(C(F)(F)F)c2)c(C)c1	inconclusive [inhibitor, single point]	
Cn1c(-c2ccc3c(c2)OCO3)cnc1NCc1cccc(Cl)c1	inconclusive [inhibitor, single point]	
CCc1nc2sc3c(c2c(=O)n1N)CCC3	inconclusive [inhibitor, single point]	
COc1ccc2[nH]cc(CCNc3cc(-c4ccccc4Cl)ncn3)c2c1	inconclusive [inhibitor, partial curve]	
O=C(OCc1nnc(-c2ccccc2)o1)c1cc(S(=O)(=O)N2CCOCC2)c(Cl)cc1Cl	inconclusive [inhibitor, full curve]	
CCOC(=O)c1oc2ccc(Br)cc2c1CSc1nnc(C)s1	inactive	
Cc1nc2c(C(=O)N3CCN(c4ccccn4)CC3)cnn2c(C)c1Cc1cccc(Cl)c1	inconclusive [inhibitor, partial curve]	
O=c1c(-c2ccc(Cl)cc2)nc2cnc(N3CCNCC3)nc2n1Cc1cccs1	inconclusive [inhibitor, single point]	
Cc1nnc2c3ccccc3c(-c3ccccc3)nn12	inconclusive [inhibitor, full curve]	
CCOC(=O)c1sc(NC(=O)c2c(C)noc2C)c(C(=O)OCC)c1C	inactive	
Cc1sc2nc(C(C)C)nc(SCC(=O)NCc3ccco3)c2c1C	inactive	
O=c1cc(-c2ccccc2)oc2cccc(O)c12	inactive	
c1cncc(-c2nc(-c3cccs3)cs2)c1	inconclusive [inhibitor, partial curve]	
O=C(Nc1ccc(-n2nncc2-c2ccco2)cc1)c1cccc(F)c1	inconclusive [inhibitor, single point]	
COC(=O)c1cc(OC)c(OC)cc1NC(=O)c1c(-c2ccccc2Cl)noc1C	inactive	
COc1cccc(-c2nc(CS(=O)CC(=O)NCc3ccccc3)c(C)o2)c1 (stereo not drawn)	inconclusive [inhibitor, partial curve, poor fit]	
CCCCn1c(SCC(=O)N2CCC(C(=O)OCC)CC2)nc2cc(S(N)(=O)=O)ccc21	inconclusive [inhibitor, single point]	
C=CCN1C(=O)C(O)(CC(=O)c2ccc(Cl)cc2)c2ccccc21 (stereo not drawn)	inconclusive [inhibitor, partial curve, poor fit]	
O=C1c2sc3nc4ccccc4n3c2C(=O)N1c1ccccc1Cl	inconclusive [inhibitor, single point]	
Cc1ccc(CNc2ccc3c(c2)OCO3)cc1	inconclusive [inhibitor, partial curve]	

Structure (SMILES)	Potency	activity, negative = inhibition
O=C(Nc1ccc2c(c1)nc1n2CCOC1)c1ccco1	inconclusive [inhibitor, partial curve, poor fit]	
COc1ccc(NS(=O)(=O)c2ccc(NS(C)(=O)=O)cc2)cc1	inconclusive [inhibitor, partial curve]	
COc1ccc(OC)c(Nc2nc(-c3cccs3)cs2)c1	inconclusive [inhibitor, full curve, poor fit]	
O=C(CSc1ncn[nH]1)N1CCN(c2nnc(-c3ccccc3)c3ccccc23)CC1	inconclusive [inhibitor, partial curve]	
O=c1[nH]c(C2CCCN(S(=O)(=O)c3ccccc3)C2)nc2c1nnn2Cc1ccccc1 (stereo not drawn)	inconclusive [inhibitor, single point]	
O=c1c(CCc2ccccc2)nc2cnc(N3CCNCC3)nc2n1C1CC1	inconclusive [inhibitor, partial curve]	
COc1ccc(CNc2ncncc2-c2ccccc2OC)c(OC)c1	inconclusive [inhibitor, partial curve]	
COc1ccc(OC)c(Nc2cc(-c3ccccc3)nc(N)n2)c1	active: 10 µM	
CN1CCN(CCCNC(=O)c2cc3c(=O)n(C)c4ccccc4c3s2)CC1	inconclusive [inhibitor, partial curve]	
COc1ccc2nc(SCC(=O)Nc3ccc4c(c3)OCCO4)[nH]c2c1	inconclusive [inhibitor, partial curve]	
NN(CC(=O)O)CC(=O)O		inactive: 7.19% [at 11.5 µM]
O=C(OCC(=O)N1CCN(C(=O)c2ccco2)CC1)c1cc(-c2ccccc2)nc2ccccc12	active: 20 µM	
CC(C)(C)C(=O)NC(c1ccc(Cl)cc1)[C@]1(C)C[C@H]1C1CCCCC1 (stereo partly drawn)	inactive	
CC(=O)OCC1OC(Oc2cc(OC(C)=O)c3c(=O)cc(-c4ccc(OC(C)=O)cc4)oc3c2)[C@@H](OC(C)=O)C(OC(C)=O)C1OC(C)=O (stereo partly drawn)	inconclusive [inhibitor, full curve, poor fit]	
CN1CCN(c2nc3c(c(=O)n(C)c(=O)n3C)n2CC(=O)C23CC4CC(CC(C4)C2)C3)CC1	inconclusive [inhibitor, full curve]	
Cc1noc(NS(=O)(=O)c2ccc(NC(=O)CSc3nc4ccccc4s3)cc2)c1C	inconclusive [inhibitor, partial curve]	
Cc1c(N=C/C=C2\N(C)c3ccccc3C2(C)C)c(=O)n(-c2ccccc2)n1C	inactive	
COc1ccc(/C=C/C(=O)c2ccc(O)cc2O)cc1OC	active: 15.8 µM	
COC(=O)CSc1nnc2n(C3CCCCC3)c(=O)c3c4c(sc3n12)CCCC4	inconclusive [inhibitor, partial curve]	
CC1CCc2nn(CC(=O)NCCCN3CCCCC3)cc2C1 (stereo not drawn)	inactive	
CC(C)CN1CC[C@@]2(CCCN(S(=O)(=O)c3ccccc3)C2)C1	inactive	
COCC(=O)N1CCC2(CC1)CCN(C(=O)NC(C)C)CC2	inactive	
CC(C)C(c1nnnn1Cc1ccco1)N1CCN(c2nc3ccccc3s2)CC1 (stereo not drawn)	active: 2 µM	

Structure (SMILES)	Potency	activity, negative = inhibition
CCc1c2c(nc3cccc(OC)c13)OC(CC)C2 (stereo not drawn)	inactive	
CN(C)S(=O)(=O)c1cccc(C(=O)NCc2ccco2)c1	inactive	
COCn1c(-c2ccc(OC)c(OC)c2)nc2ccccc21	inconclusive [inhibitor, single point]	
CN(C)c1ncc2nc(-c3cc(F)cc(F)c3)c(=O)n(C[C@H]3CCCO3)c2n1	inactive	
COc1cc2nc(C3CCC3)n(NC(=O)COc3ccccc3)c(=O)c2cc1OC	inconclusive [inhibitor, partial curve, poor fit]	
O=C(NCCC1=CCCCC1)c1ccc(Br)o1	inconclusive [inhibitor, single point]	
CCN(CC)S(=O)(=O)c1ccc(C(=O)OCn2nnc3ccccc3c2=O)cc1	inconclusive [inhibitor, partial curve]	
O=S(=O)(Nc1ccc2nc(-c3ccco3)[nH]c2c1)c1ccccc1	inconclusive [inhibitor, single point]	
C[C@@H]1O[C@@H](n2cc(F)c(=O)[nH]c2=O)[C@H](O)[C@@H]1O	inactive	
COC(=O)N1CCc2cc(OC)c(OC)cc2C1Cc1ccc(OC)cc1 (stereo not drawn)		inactive: 17.8% [at 11.5 µM]
CCc1ccc(CCC(=O)Nc2ccc(S(N)(=O)=O)cc2)o1	inconclusive [inhibitor, partial curve]	
COc1cc(NC(=O)c2cc3nc(C)cc(C)n3n2)c(OC)cc1Cl	inconclusive [inhibitor, full curve, poor fit]	
O=C(OCCN=C1NS(=O)(=O)c2ccccc21)C1CC(=O)N(c2ccc(Cl)cc2)C1 (stereo not drawn)	inconclusive [inhibitor, partial curve]	
Cc1cnc(CNc2ncnc3ccc(-c4ccc5c(c4)OCO5)cc23)cn1	inconclusive [inhibitor, partial curve]	
Cn1ccc2cc3c(cc21)CCN3C(=O)Nc1cccnc1	inconclusive [inhibitor, partial curve]	
O=C(Nc1ccc(F)cc1)N1CCC(c2nc3c(nnn3Cc3cccc(Cl)c3)c(=O)[nH]2)CC1	inconclusive [inhibitor, single point]	
CCN1C(=O)[C@H]2[C@H]3[C@H](O)[C@H](O)C/C(=N/OC[C@@H](O)COCc4ccco4)[C@H]3CC[C@@H]2C1=O		inactive: 35.3% [at 11.5 µM]
Cc1ccccc1-c1ccc2ncnc(N3CCN(C)CC3)c2c1	inconclusive [inhibitor, single point]	
CCn1cc(C(=O)Nc2ccc(-n3cnnn3)c(OC)c2)c(=O)c2ccc(C)nc21	inconclusive [inhibitor, single point]	
COc1cccc(C2CC(c3c(Cl)cccc3Cl)n3nc(N)nc3N2)c1 (stereo not drawn)	inconclusive [inhibitor, partial curve]	
Clc1cccc(Cl)c1Cn1cnc(=NCc2ccco2)c2[nH]cnc21	inconclusive [inhibitor, partial curve]	
COC(=O)C1=C(C)NC(=O)C1(Nc1nccs1)C(F)(F)F (stereo not drawn)	inconclusive [inhibitor, partial curve, poor fit]	
